PMC4336329 (PLoS ONE, 2015)
The whole screen tested about 310,000 compounds, of which about 2,200 (0.71%) showed an effect of 50% or more. The effect is printed as a negative number. The list shows a part of the results.

target: human ether-à-go-go-related gene (hERG) potassium channel (human, UniProt Q12809); experiment: primary screen, population patch clamp on CHO cells stably expressing hERG
Sequence (Q12809 whole entry, looked up): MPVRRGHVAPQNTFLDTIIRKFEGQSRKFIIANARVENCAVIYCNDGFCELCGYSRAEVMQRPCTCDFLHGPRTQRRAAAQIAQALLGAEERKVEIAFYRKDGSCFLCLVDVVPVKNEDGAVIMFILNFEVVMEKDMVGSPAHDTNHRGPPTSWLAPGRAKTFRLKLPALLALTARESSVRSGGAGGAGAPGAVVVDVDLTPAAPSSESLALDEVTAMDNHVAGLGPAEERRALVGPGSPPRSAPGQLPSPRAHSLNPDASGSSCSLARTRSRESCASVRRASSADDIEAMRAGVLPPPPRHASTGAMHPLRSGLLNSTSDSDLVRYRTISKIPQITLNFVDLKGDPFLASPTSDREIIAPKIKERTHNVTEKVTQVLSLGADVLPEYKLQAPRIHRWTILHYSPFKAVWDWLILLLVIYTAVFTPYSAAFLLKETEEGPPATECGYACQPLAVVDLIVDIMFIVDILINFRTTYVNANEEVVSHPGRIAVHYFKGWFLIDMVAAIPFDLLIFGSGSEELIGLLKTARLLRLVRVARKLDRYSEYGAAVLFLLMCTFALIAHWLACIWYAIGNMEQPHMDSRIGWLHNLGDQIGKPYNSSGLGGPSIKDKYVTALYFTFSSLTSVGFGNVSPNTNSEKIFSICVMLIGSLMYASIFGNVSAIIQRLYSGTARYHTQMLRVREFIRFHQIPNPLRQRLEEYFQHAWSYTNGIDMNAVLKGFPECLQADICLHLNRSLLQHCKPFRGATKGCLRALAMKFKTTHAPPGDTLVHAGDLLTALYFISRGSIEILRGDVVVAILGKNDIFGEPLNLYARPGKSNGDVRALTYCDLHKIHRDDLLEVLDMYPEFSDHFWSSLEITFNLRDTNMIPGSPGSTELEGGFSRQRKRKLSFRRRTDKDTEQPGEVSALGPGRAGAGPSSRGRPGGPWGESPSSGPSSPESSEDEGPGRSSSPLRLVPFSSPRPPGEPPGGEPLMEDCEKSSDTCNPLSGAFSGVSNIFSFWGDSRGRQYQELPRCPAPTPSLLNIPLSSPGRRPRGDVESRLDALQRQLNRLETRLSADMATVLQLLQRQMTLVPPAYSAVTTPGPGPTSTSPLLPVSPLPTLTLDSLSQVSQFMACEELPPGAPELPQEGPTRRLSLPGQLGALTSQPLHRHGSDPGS

| SMILES | hERG current change (%, negative = inhibition) at 1uM |
| --- | --- |
| Cn1c(=O)oc2cc(S(=O)(=O)N3CCN(c4ccccn4)CC3)ccc21 | 10.8% |
| CC(=O)c1ccc(NC(=O)c2ccc3nc(C)sc3c2)cc1 | 12.9% |
| CCOC(=O)N1CCN(C(=O)COC(=O)CN(C)S(=O)(=O)c2ccc(NC(C)=O)cc2)CC1 | 8.03% |
| O=C(O)CCN1c2ccccc2Sc2ccccc21 | 13.5% |
| CC(C)CC(COCc1ccc(C(F)(F)F)cc1)N1CCN(C(=O)c2ccc(C(F)(F)F)cc2)CCC1=O (centres unmarked) | 3.51% |
| O=C(/C=C/c1ccco1)Nc1ccc2c(c1)OCO2 | 12.6% |
| CN(C(=O)CSc1nnnn1-c1ccccc1)C1CCS(=O)(=O)C1 (centres unmarked) | 9.7% |
| O=C(OCC(=O)N1CCOCC1)c1ccc(Cl)nc1 | 12.3% |
| O=C(Nc1cccs1)Nc1c(F)c(F)cc(F)c1F | 10.7% |
| O=C(NCC1CCCO1)c1ccc(Br)o1 (centres unmarked) | 15.7% |
| COCCCNC(=O)c1cc(C(=O)c2ccccc2Br)c[nH]1 | 11.5% |
| CCOc1ccc(Cl)cc1/C=N/NC(=O)CNC(=O)c1ccccc1 | 5.81% |
| COc1ccc(C)cc1NC(=O)CCNC(=O)Cn1ccc2ccccc2c1=O | 15.1% |
| O=C(/C=C/c1ccc(OC2CSC2)cc1)c1ccccc1 | 12.6% |
| O=C(COc1ccccc1Br)NCCC1=CCCCC1 | 8.65% |
| CCC(CC)c1nnc(NC(=O)CCCN2C(=O)c3ccccc3C2=O)s1 | -9.25% |
| COc1ccc(CC(=O)Nc2ccc(C(=O)NCC(C)C)cc2)cc1 | 7.15% |
| CCOc1ccccc1C(=S)NC1CCCCC1 | 13.4% |
| COc1ccc(Nc2nc(-c3ccc(OC)cc3)c(CCC(=O)O)s2)cc1 | 12.3% |
| O=C(c1cc2cc(F)ccc2[nH]1)N1CCN(C(=O)c2ccco2)CC1 | -9.87% |
| Cn1cc(/C=C(\C#N)C(=O)Nc2cccc([N+](=O)[O-])c2)c2ccccc21 | 15.2% |
| CC(NC(=O)CCc1nnc(-c2ccc(-c3ccccc3)cc2)o1)c1nccs1 (centres unmarked) | 8.09% |

| SMILES | hERG current change (%, negative = inhibition) at 1uM |
| --- | --- |
| Cc1nc(NC(=O)c2ccco2)sc1-c1csc(Nc2ccc(Cl)cc2Cl)n1 | 6.16% |
| Cc1cc(N2CCOCC2)nc(-c2ccc([N+](=O)[O-])cc2)n1 | 1.06% |
| O=C(CCN1C(=O)c2ccccc2C1=O)Nc1cccc(F)c1 | -2.2% |
| Cc1ccccc1N(C(=O)CS(=O)CC(=O)Nc1ccc(F)cc1)C(C)C(=O)NC(C)(C)C (centres unmarked) | 12.8% |
| CCOC(=O)Nc1ccc2c(c1)N(C(=O)N(CC)CC)c1ccccc1CC2 | 8.26% |
| COCCNC(=O)CN1C(=O)C(C)N=C(c2ccccc2)c2cc(Cl)ccc21 (centres unmarked) | -1.11% |
| N#Cc1ccc(Oc2ccc(S(=O)(=O)N3CCOCC3)cn2)cc1 | -5.47% |
| Cc1ccc(NC(=O)CCc2nc3sc4c(c3c(=O)[nH]2)CCCC4)c(Br)c1 | 8.26% |
| Cc1cc(NC(=O)CSc2nc3c(sc4ccccc43)c(=O)n2CCc2ccccc2)n[nH]1 | -17.9% |
| COC(=O)c1c(NC(=O)c2ccco2)sc(C)c1C | 13% |
| Cc1cc(C)n(-c2nc(-c3ccc(Cl)cc3)cs2)n1 | 9.13% |
| COCCSc1ccccc1C(=O)Nc1ccc(S(=O)(=O)N2CCOCC2)cc1 | 8.1% |
| CCCCn1c(N)c(N(CC(C)C)C(=O)c2ccc(N3C(=O)CCC3=O)cc2)c(=O)[nH]c1=O | 13.1% |
| CCN(CC)C(=O)Cn1ccc(NC(C)=O)nc1=O | 5.61% |
| N#CC1=C(N)Oc2c(ccc3cccnc23)C1c1cccnc1 (centres unmarked) | 8.14% |
| C/C(=N/N1CCN(c2ccccn2)CC1)c1cccc([N+](=O)[O-])c1 | 4.06% |
| O=C(OCc1ccc(F)cc1Cl)c1ccccn1 | 3.13% |
| CCOc1ccc(NS(=O)(=O)c2ccc(C(=O)NC3CCC(O)CC3)cc2)cc1 (centres unmarked) | 10% |
| O=S(=O)(Nc1ccccc1O)c1ccc(-c2ccccc2)cc1 | 8.2% |
| CCOc1ccc(-n2c(SCC(=O)N3CCC(C(=O)O)CC3)nc3ccccc3c2=O)cc1 | 15.4% |
| Cc1ccc(NC2=NCC(=O)N2Cc2ccc3c(c2)OCO3)cc1 | 0.368% |
| CCCn1c(/C=C/c2cc[n+](C)cc2)nc2ccccc21.[I-] | 7.98% |
